Measured values published in US20240270806A1 (Chugai, published 2024).
Residue numbers refer to the chain shown, from its start.

B1: Bivalent IL-12 fusion protein FP32 (other)
heavy: QVQLVQSGAEVKKPGSSVKVSCKASGGTFSDYYLHWSRQAPGQGLEWMGWIDPENGDTEYAPKFQGRVTITADESTSTAYMELSSLRSEDTAVYYCARNKELRYIDVWGQGTLVTVSSTSGSGRSATPRGASTKGPSVFPLAPCSKSTSGGTAALGCLVKDYFPEPVTVSWNSGALTSGVHTFPAVLQSSGLYSLSSVVTVPSSSLGTQTYICNVNHKPSNTKVDKRVGGGGSGGGGS[human IgG1 Fc with changes cut from this listing]GSGGSGGSGGSGGSGGSIWELKKDVYVVELDWGPDAPGEMVVLTCDTPEEDGITWTLDQSSEVLGSGKTLTIQVKEFGDAGQYTCHKGGEVLSHSLLLLHKKEDGIWSTDILKDQKEPKNKTFLRCEAKNYSGRFTCWWLTTISTDLTFSVKSSRGSSDPQGVTCGAATLSAERVRGDNKEYEYSVECQEDSACPAAEESLPIEVMVDAVHKLKYENYTSSFFIRDIIKPDPPKNLQLKPLKNSRQVEVSWEYPDTWSTPHSYFSLTFCVQVQGKHKEKKDRVFTDKTSATVICRKNASISVRAQDRYYSSSWSEWASVPCSGGGGSGGGGSGGGGSGGGGSNLPVATPDPGMFPCLHHSQNLLRAVSNMLQKARQTLEFYPCTSEEIDHEDITKDKTSTVEACLPLELTKNESCLNSRETSFITNGSCLASRKTSFMMALCLSSIYEDLKMYQVEFKTMNAKLLMDPKRQIFLDQNMLAVIDELMQALNFNSETVPQKSSLEEPDFYKTKIKLCILLHAFRIRAVTIDRVMSYLNAS
light: DIVMTQSPLSLPVTPGEPASISCRASQSISINLHWYQQKPGQAPRQLIAFASQSISGVPSRFSGSGSGTDFTLTISSLQPEDFATYYCQQSNSFPLTFGQGTKVEIKRTVAAPSVFIFPPSDEQLKSGTASVVCLLNNFYPREAKVQWKVDNALQSGNSQESVTEQDSKDSTYSLSSTLTLSKADYEKHKVYACEVTHQGLSSPVTKSFNRGEC
B2: Bivalent IL-12 fusion protein FP43 (other)
heavy: QVQLVQSGAEVKKPGSSVKVSCKASGGTFSDYYLHWSRQAPGQGLEWMGWIDPENGDTEYAPKFQGRVTITADESTSTAYMELSSLRSEDTAVYYCARNKELRYIDVWGQGTLVTVSSTSGSGRSATPRGASTKGPSVFPLAPCSKSTSGGTAALGCLVKDYFPEPVTVSWNSGALTSGVHTFPAVLQSSGLYSLSSVVTVPSSSLGTQTYICNVNHKPSNTKVDKRVGGGGSGGGGS[human IgG1 Fc with changes cut from this listing]GSGGSGGSGGSGGSGGSIWELKKDVYVVELDWTPDAPGEMVVLTCDTPEEDGITWTLDQSSEVLGSGKTLTIQVKEFGDAGQYTCHKGGEVLSHSLLLLHKKEDGIWSTDILKDQKEPKNKTFLRCEAKNYSGRFTCWWLTTISTDLTFSVKSSRGSSDPQGVTCGAATLSAERVRGDNKEYEYSVECQEDSACPAAEESLPIEVMVDAVHKLKYENYTSSFFIRDIIKPDPPKNLQLKPLKNSRQVEVSWEYPDTWSTPHSYFSLTFCVQVQGKHKEKKDRVFTDKTSATVICRKNASISVRAQDRYYSSSWSEWASVPCSGGGGSGGGGSGGGGSGGGGSNLPVATPDPGMFPCLHHSQNLLRAVSNMLQKARQTLEFYPCTSEEIDHEDITKDKTSTVEACLPLELTKNESCLNSRETSFITNGSCLASRKTSFMMALCLSSIYEDLKMYQVEFKTMNAKLLMDPKRQIFLDQNMLAVIDELMQALNFNSETVPQKSSLEEPDFYKTKIKLCILLHAFRIRAVTIDRVMSYLNAS
light: B1 light
B3: Bivalent IL-12 fusion protein FP30 (other)
heavy: QVQLVQSGAEVKKPGSSVKVSCKASGGTFSDYYLHWSRQAPGQGLEWMGWIDPENGDTEYAPKFQGRVTITADESTSTAYMELSSLRSEDTAVYYCARNKELRYIDVWGQGTLVTVSSTSGSGRSATPRGASTKGPSVFPLAPCSKSTSGGTAALGCLVKDYFPEPVTVSWNSGALTSGVHTFPAVLQSSGLYSLSSVVTVPSSSLGTQTYICNVNHKPSNTKVDKRVGGGGSGGGGS[human IgG1 Fc with changes cut from this listing]GSGGSGGSGGSGGSGGSIWELKKDVYVVELDWEPDAPGEMVVLTCDTPEEDGITWTLDQSSEVLGSGKTLTIQVKEFGDAGQYTCHKGGEVLSHSLLLLHKKEDGIWSTDILKDQKEPKNKTFLRCEAKNYSGRFTCWWLTTISTDLTFSVKSSRGSSDPQGVTCGAATLSAERVRGDNKEYEYSVECQEDSACPAAEESLPIEVMVDAVHKLKYENYTSSFFIRDIIKPDPPKNLQLKPLKNSRQVEVSWEYPDTWSTPHSYFSLTFCVQVQGKHKEKKDRVFTDKTSATVICRKNASISVRAQDRYYSSSWSEWASVPCSGGGGSGGGGSGGGGSGGGGSNLPVATPDPGMFPCLHHSQNLLRAVSNMLQKARQTLEFYPCTSEEIDHEDITKDKTSTVEACLPLELTKNESCLNSRETSFITNGSCLASRKTSFMMALCLSSIYEDLKMYQVEFKTMNAKLLMDPKRQIFLDQNMLAVIDELMQALNFNSETVPQKSSLEEPDFYKTKIKLCILLHAFRIRAVTIDRVMSYLNAS
light: B1 light
B4: Bivalent IL-12 fusion protein FP46 (other)
heavy: QVQLVQSGAEVKKPGSSVKVSCKASGGTFSDYYLHWSRQAPGQGLEWMGWIDPENGDTEYAPKFQGRVTITADESTSTAYMELSSLRSEDTAVYYCARNKELRYIDVWGQGTLVTVSSTSGSGRSATPRGASTKGPSVFPLAPCSKSTSGGTAALGCLVKDYFPEPVTVSWNSGALTSGVHTFPAVLQSSGLYSLSSVVTVPSSSLGTQTYICNVNHKPSNTKVDKRVGGGGSGGGGS[human IgG1 Fc with changes cut from this listing]GSGGSGGSGGSGGSGGSIWELKKDVYVVELDWPPDAPGEMVVLTCDTPEEDGITWTLDQSSEVLGSGKTLTIQVKEFGDAGQYTCHKGGEVLSHSLLLLHKKEDGIWSTDILKDQKEPKNKTFLRCEAKNYSGRFTCWWLTTISTDLTFSVKSSRGSSDPQGVTCGAATLSAERVRGDNKEYEYSVECQEDSACPAAEESLPIEVMVDAVHKLKYENYTSSFFIRDIIKPDPPKNLQLKPLKNSRQVEVSWEYPDTWSTPHSYFSLTFCVQVQGKHKEKKDRVFTDKTSATVICRKNASISVRAQDRYYSSSWSEWASVPCSGGGGSGGGGSGGGGSGGGGSNLPVATPDPGMFPCLHHSQNLLRAVSNMLQKARQTLEFYPCTSEEIDHEDITKDKTSTVEACLPLELTKNESCLNSRETSFITNGSCLASRKTSFMMALCLSSIYEDLKMYQVEFKTMNAKLLMDPKRQIFLDQNMLAVIDELMQALNFNSETVPQKSSLEEPDFYKTKIKLCILLHAFRIRAVTIDRVMSYLNAS
light: B1 light with S30V
B5: Bivalent IL-12 fusion protein FP28 (other)
heavy: QVQLVQSGAEVKKPGSSVKVSCKASGGTFSDYYLHWSRQAPGQGLEWMGWIDPENGDTEYAPKFQGRVTITADESTSTAYMELSSLRSEDTAVYYCARNKELRYIDVWGQGTLVTVSSTSGSGRSATPRGASTKGPSVFPLAPCSKSTSGGTAALGCLVKDYFPEPVTVSWNSGALTSGVHTFPAVLQSSGLYSLSSVVTVPSSSLGTQTYICNVNHKPSNTKVDKRVGGGGSGGGGS[human IgG1 Fc with changes cut from this listing]GSGGSGGSGGSGGSGGSIWELKKDVYVVELDWFPDAPGEMVVLTCDTPEEDGITWTLDQSSEVLGSGKTLTIQVKEFGDAGQYTCHKGGEVLSHSLLLLHKKEDGIWSTDILKDQKEPKNKTFLRCEAKNYSGRFTCWWLTTISTDLTFSVKSSRGSSDPQGVTCGAATLSAERVRGDNKEYEYSVECQEDSACPAAEESLPIEVMVDAVHKLKYENYTSSFFIRDIIKPDPPKNLQLKPLKNSRQVEVSWEYPDTWSTPHSYFSLTFCVQVQGKHKEKKDRVFTDKTSATVICRKNASISVRAQDRYYSSSWSEWASVPCSGGGGSGGGGSGGGGSGGGGSNLPVATPDPGMFPCLHHSQNLLRAVSNMLQKARQTLEFYPCTSEEIDHEDITKDKTSTVEACLPLELTKNESCLNSRETSFITNGSCLASRKTSFMMALCLSSIYEDLKMYQVEFKTMNAKLLMDPKRQIFLDQNMLAVIDELMQALNFNSETVPQKSSLEEPDFYKTKIKLCILLHAFRIRAVTIDRVMSYLNAS
light: B1 light
B6: Bivalent IL-12 fusion protein FP33 (other)
heavy: QVQLVQSGAEVKKPGSSVKVSCKASGGTFSDYYLHWSRQAPGQGLEWMGWIDPENGDTEYAPKFQGRVTITADESTSTAYMELSSLRSEDTAVYYCARNKELRYIDVWGQGTLVTVSSTSGSGRSATPRGASTKGPSVFPLAPCSKSTSGGTAALGCLVKDYFPEPVTVSWNSGALTSGVHTFPAVLQSSGLYSLSSVVTVPSSSLGTQTYICNVNHKPSNTKVDKRVGGGGSGGGGS[human IgG1 Fc with changes cut from this listing]GSGGSGGSGGSGGSGGSIWELKKDVYVVELDWKPDAPGEMVVLTCDTPEEDGITWTLDQSSEVLGSGKTLTIQVKEFGDAGQYTCHKGGEVLSHSLLLLHKKEDGIWSTDILKDQKEPKNKTFLRCEAKNYSGRFTCWWLTTISTDLTFSVKSSRGSSDPQGVTCGAATLSAERVRGDNKEYEYSVECQEDSACPAAEESLPIEVMVDAVHKLKYENYTSSFFIRDIIKPDPPKNLQLKPLKNSRQVEVSWEYPDTWSTPHSYFSLTFCVQVQGKHKEKKDRVFTDKTSATVICRKNASISVRAQDRYYSSSWSEWASVPCSGGGGSGGGGSGGGGSGGGGSNLPVATPDPGMFPCLHHSQNLLRAVSNMLQKARQTLEFYPCTSEEIDHEDITKDKTSTVEACLPLELTKNESCLNSRETSFITNGSCLASRKTSFMMALCLSSIYEDLKMYQVEFKTMNAKLLMDPKRQIFLDQNMLAVIDELMQALNFNSETVPQKSSLEEPDFYKTKIKLCILLHAFRIRAVTIDRVMSYLNAS
light: B1 light
B7: Bivalent IL-12 fusion protein FP41 (other)
heavy: QVQLVQSGAEVKKPGSSVKVSCKASGGTFSDYYLHWSRQAPGQGLEWMGWIDPENGDTEYAPKFQGRVTITADESTSTAYMELSSLRSEDTAVYYCARNKELRYIDVWGQGTLVTVSSTSGSGRSATPRGASTKGPSVFPLAPCSKSTSGGTAALGCLVKDYFPEPVTVSWNSGALTSGVHTFPAVLQSSGLYSLSSVVTVPSSSLGTQTYICNVNHKPSNTKVDKRVGGGGSGGGGS[human IgG1 Fc with changes cut from this listing]GSGGSGGSGGSGGSGGSIWELKKDVYVVELDWRPDAPGEMVVLTCDTPEEDGITWTLDQSSEVLGSGKTLTIQVKEFGDAGQYTCHKGGEVLSHSLLLLHKKEDGIWSTDILKDQKEPKNKTFLRCEAKNYSGRFTCWWLTTISTDLTFSVKSSRGSSDPQGVTCGAATLSAERVRGDNKEYEYSVECQEDSACPAAEESLPIEVMVDAVHKLKYENYTSSFFIRDIIKPDPPKNLQLKPLKNSRQVEVSWEYPDTWSTPHSYFSLTFCVQVQGKHKEKKDRVFTDKTSATVICRKNASISVRAQDRYYSSSWSEWASVPCSGGGGSGGGGSGGGGSGGGGSNLPVATPDPGMFPCLHHSQNLLRAVSNMLQKARQTLEFYPCTSEEIDHEDITKDKTSTVEACLPLELTKNESCLNSRETSFITNGSCLASRKTSFMMALCLSSIYEDLKMYQVEFKTMNAKLLMDPKRQIFLDQNMLAVIDELMQALNFNSETVPQKSSLEEPDFYKTKIKLCILLHAFRIRAVTIDRVMSYLNAS
light: B1 light

These binders were tested against Human IL-12 receptor (human IL-12Rb1 and IL-12Rb2) (human, UniProt P42701 24-662; Q99665 24-862) (assay: cell-based or functional assay).

Fold change (window), IL-12 luciferase assay [fold]	Binder
238	B1
41.9	B2
172	B3
498	B4
81	B5
80	B6
25.6	B7
